{
  "source": "paper PMC4336329",
  "about": "(PLoS ONE, 2015)",
  "note": "Hit rate of the full screen: of about 310,000 compounds, about 2,200 (0.71%) showed an effect of 50% or more. Effects have a minus sign here. Some of the results follow.",
  "data": [
    {"target": "human ether-à-go-go-related gene (hERG) potassium channel (human, UniProt Q12809)", "sequence (Q12809 whole entry, looked up)": "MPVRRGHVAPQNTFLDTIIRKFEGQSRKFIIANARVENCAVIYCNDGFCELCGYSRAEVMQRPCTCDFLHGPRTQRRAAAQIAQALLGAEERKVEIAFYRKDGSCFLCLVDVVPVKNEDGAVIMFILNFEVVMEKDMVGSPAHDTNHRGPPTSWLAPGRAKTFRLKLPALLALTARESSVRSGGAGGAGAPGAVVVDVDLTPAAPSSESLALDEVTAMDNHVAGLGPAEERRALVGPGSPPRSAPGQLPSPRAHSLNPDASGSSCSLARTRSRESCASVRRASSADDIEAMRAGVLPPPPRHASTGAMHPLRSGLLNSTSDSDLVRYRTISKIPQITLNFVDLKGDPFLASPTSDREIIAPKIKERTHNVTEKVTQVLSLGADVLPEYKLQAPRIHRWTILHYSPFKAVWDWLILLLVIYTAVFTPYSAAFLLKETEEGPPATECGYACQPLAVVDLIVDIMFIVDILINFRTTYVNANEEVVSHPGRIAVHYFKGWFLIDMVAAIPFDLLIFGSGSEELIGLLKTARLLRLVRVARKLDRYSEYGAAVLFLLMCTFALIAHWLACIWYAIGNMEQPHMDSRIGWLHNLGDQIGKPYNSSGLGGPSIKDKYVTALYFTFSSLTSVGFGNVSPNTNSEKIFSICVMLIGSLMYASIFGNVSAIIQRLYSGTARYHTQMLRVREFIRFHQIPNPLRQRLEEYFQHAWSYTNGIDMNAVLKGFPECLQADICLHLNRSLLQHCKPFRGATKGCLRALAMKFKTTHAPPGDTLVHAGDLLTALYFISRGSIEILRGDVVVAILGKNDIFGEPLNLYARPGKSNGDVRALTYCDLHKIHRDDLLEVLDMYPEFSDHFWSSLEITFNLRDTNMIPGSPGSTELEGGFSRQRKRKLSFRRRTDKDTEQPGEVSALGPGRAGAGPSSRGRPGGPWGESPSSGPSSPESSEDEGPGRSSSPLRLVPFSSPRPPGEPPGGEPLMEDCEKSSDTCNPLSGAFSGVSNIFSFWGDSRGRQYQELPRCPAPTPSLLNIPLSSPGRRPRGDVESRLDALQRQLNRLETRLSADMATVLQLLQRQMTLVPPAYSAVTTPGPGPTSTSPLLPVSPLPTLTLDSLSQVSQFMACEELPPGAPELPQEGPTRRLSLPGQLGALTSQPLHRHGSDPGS", "experiment": "primary screen, population patch clamp on CHO cells stably expressing hERG", "units": {"hERG current change (%, negative = inhibition) at 1uM": "%"}, "values": [
      {"smiles": "CCn1cc(C(=O)OCC(=O)N(C)Cc2ccccc2)c(=O)c2ccc(C)nc21", "hERG current change (%, negative = inhibition) at 1uM": 9.83},
      {"smiles": "CSC1=NCCN1C(=O)Cc1ccc(Cl)cc1", "hERG current change (%, negative = inhibition) at 1uM": 8.21},
      {"smiles": "COc1ccc(CCC(=O)NNC(=S)Nc2cccc(C(C)=O)c2)cc1", "hERG current change (%, negative = inhibition) at 1uM": 11.3},
      {"smiles": "COc1ccc(/C=N\\Nc2ccccn2)c(OC)c1", "hERG current change (%, negative = inhibition) at 1uM": 14.5},
      {"smiles": "C#CC[N+](CC)(CC)CC#Cc1cccc(Cl)c1.[Br-]", "hERG current change (%, negative = inhibition) at 1uM": 2.06},
      {"smiles": "O=C(COc1ccccc1Cl)NCCCNC(=O)c1cnccn1", "hERG current change (%, negative = inhibition) at 1uM": 6.29},
      {"smiles": "CCOC(=O)c1cc(NC(=O)c2ccc(C)cc2)c(=O)oc1C(F)(F)F", "hERG current change (%, negative = inhibition) at 1uM": 6.59},
      {"smiles": "CCc1ccccc1NC(=O)c1ccoc1C", "hERG current change (%, negative = inhibition) at 1uM": 6.07},
      {"smiles": "CCc1nc(SCC(=O)Nc2ccc(N(C)C)cc2)c2ccccc2n1", "hERG current change (%, negative = inhibition) at 1uM": 8.74},
      {"smiles": "CCOC(=O)n1c(=O)n(Cc2ccccc2C)c2ccccc21", "hERG current change (%, negative = inhibition) at 1uM": 9.15},
      {"smiles": "CC(C)CCN1C(=O)C2(OCCCO2)c2cc(Cl)ccc21", "hERG current change (%, negative = inhibition) at 1uM": 16.3},
      {"smiles": "COc1ccccc1CNC(=O)C(=O)NCC1OCCN1S(=O)(=O)c1cccs1", "note": "(stereo not drawn)", "hERG current change (%, negative = inhibition) at 1uM": 7.5},
      {"smiles": "Cc1ccc(OCC(=O)Nc2ccc3c(c2)nc(CCN2CCCCC2)n3C)cc1", "hERG current change (%, negative = inhibition) at 1uM": -60},
      {"smiles": "CC1CCCC(C)N1CCCNC(=O)Cn1c(=O)c2cccn2c2cccnc21", "note": "(stereo not drawn)", "hERG current change (%, negative = inhibition) at 1uM": 9.52},
      {"smiles": "O=C(COC(=O)c1cc(=O)[nH]c2ccccc12)Nc1nc(-c2ccccc2)cs1", "hERG current change (%, negative = inhibition) at 1uM": 11.6},
      {"smiles": "CC1(C)Nc2ccccc2N(CCC(=O)N2CCOCC2)C1=O", "hERG current change (%, negative = inhibition) at 1uM": 9.9},
      {"smiles": "CCOC(=O)C1CCN(CC(C)(C)NS(=O)(=O)c2ccc(C)cc2)CC1", "hERG current change (%, negative = inhibition) at 1uM": 10.5},
      {"smiles": "CCOC(=O)C1CCCN(Cc2ccc3c(c2)OCO3)C1", "note": "(stereo not drawn)", "hERG current change (%, negative = inhibition) at 1uM": 12.4},
      {"smiles": "Cc1cccc(C(=O)Nc2ccc(S(=O)(=O)Nc3nc(C)cc(C)n3)cc2)c1", "hERG current change (%, negative = inhibition) at 1uM": 6.01},
      {"smiles": "CCCn1cc(CN2CCCC(C(=O)c3cccc(OC)c3)C2)c(C)n1", "note": "(stereo not drawn)", "hERG current change (%, negative = inhibition) at 1uM": -14.5},
      {"smiles": "Cc1cccc(NS(=O)(=O)c2csc(C(N)=O)c2)c1", "hERG current change (%, negative = inhibition) at 1uM": 14.4},
      {"smiles": "Cc1ccc2c(CSc3nnc(C4CC4)n3N)cc(=O)oc2c1", "hERG current change (%, negative = inhibition) at 1uM": 1.13},
      {"smiles": "CCNC(=O)CN1C(=O)NC2(CCCc3cc(OC)ccc32)C1=O", "note": "(stereo not drawn)", "hERG current change (%, negative = inhibition) at 1uM": 1.93},
      {"smiles": "CCCn1nnnc1NCc1cccn1C", "hERG current change (%, negative = inhibition) at 1uM": 3.51},
      {"smiles": "O=C(Nc1ccc(S(=O)(=O)Nc2ccc(Cl)cc2)cc1)C1CCCO1", "note": "(stereo not drawn)", "hERG current change (%, negative = inhibition) at 1uM": 8.93},
      {"smiles": "Cc1sc2ncnc(N3CCC(C(=O)Nc4ccc(Cl)cc4Cl)CC3)c2c1C", "hERG current change (%, negative = inhibition) at 1uM": 8.36},
      {"smiles": "CCc1ccccc1NC(=O)C1CCCN1C(=O)NCc1ccccc1", "note": "(stereo not drawn)", "hERG current change (%, negative = inhibition) at 1uM": 17.3},
      {"smiles": "CC(C)(Nc1ccccc1)C(=O)c1ccccc1", "hERG current change (%, negative = inhibition) at 1uM": 4.37},
      {"smiles": "COc1ccc(C2N(c3ccc(F)cc3)C(=O)C3CCCN32)cc1", "note": "(stereo not drawn)", "hERG current change (%, negative = inhibition) at 1uM": -1.62},
      {"smiles": "COc1ccc2nc(C)cc(SCC(=O)N/N=C/c3ccco3)c2c1", "hERG current change (%, negative = inhibition) at 1uM": 4.19},
      {"smiles": "CNc1ncc(C(=O)c2ccc(-c3ccccc3)cc2)s1", "hERG current change (%, negative = inhibition) at 1uM": 15.8},
      {"smiles": "O=C(CSc1ccc(-c2ccccn2)nn1)NCc1ccc(Cl)cc1", "hERG current change (%, negative = inhibition) at 1uM": 7.67},
      {"smiles": "CCCC(=O)N1CCN(Cc2nc3cc([N+](=O)[O-])ccc3n2C)CC1", "hERG current change (%, negative = inhibition) at 1uM": 1.17},
      {"smiles": "N#CCN=C(c1ccccc1)c1ccccc1", "hERG current change (%, negative = inhibition) at 1uM": 12.8},
      {"smiles": "Cl.N=c1sccn1CC(=O)Nc1cccc(Oc2ccccc2)c1", "hERG current change (%, negative = inhibition) at 1uM": -17.4},
      {"smiles": "COc1ccc(CNC(=O)CNC(=O)c2ccc(C(C)(C)C)cc2)cc1OC", "hERG current change (%, negative = inhibition) at 1uM": 10.5},
      {"smiles": "CC(SCC(=O)NC(C)C1CC2CCC1C2)C(=O)O", "note": "(stereo not drawn)", "hERG current change (%, negative = inhibition) at 1uM": 3.95},
      {"smiles": "COC(=O)c1c(NC(=O)C(C)C)sc2c1CCN(Cc1ccccc1)C2.Cl", "hERG current change (%, negative = inhibition) at 1uM": 13.8},
      {"smiles": "Cc1nc(C(C)NC(=O)CCc2nnc(Cc3c[nH]c4ccccc34)o2)cs1", "note": "(stereo not drawn)", "hERG current change (%, negative = inhibition) at 1uM": 24.1},
      {"smiles": "Cc1occc1C(=O)n1nnc2ccccc21", "hERG current change (%, negative = inhibition) at 1uM": 2.28},
      {"smiles": "Cc1ccc(NC2=C(N3CCCCC3)C(=O)c3ccccc3C2=O)cc1", "hERG current change (%, negative = inhibition) at 1uM": 15.4},
      {"smiles": "COc1cccc(C2=CC(c3ccc(OC)c(OC)c3OC)n3nnnc3N2)c1", "note": "(stereo not drawn)", "hERG current change (%, negative = inhibition) at 1uM": 6.38},
      {"smiles": "COc1ccc(CCNC(=O)CCN2C(=O)COc3ccccc32)cc1OC", "hERG current change (%, negative = inhibition) at 1uM": 9.26},
      {"smiles": "COc1cc(/C=C2\\N=C3CCCCCN3C2=O)ccc1O", "hERG current change (%, negative = inhibition) at 1uM": 10.1},
      {"smiles": "COc1ccccc1/C=C/C(=O)NC(=S)NCC1CCCO1", "note": "(stereo not drawn)", "hERG current change (%, negative = inhibition) at 1uM": 6.12}
    ]}
  ]
}
